Results taken from PMC4336329 (PLoS ONE, 2015).
Among all 310,000 compounds or so, about 14,000 (4.5%) showed an effect of 50% or more. The effect is printed as a negative number. The list shows a part of the results.

The compounds below were run against human ether-à-go-go-related gene (hERG) potassium channel (human, UniProt Q12809) (assay: primary screen, population patch clamp on CHO cells stably expressing hERG).
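Note: peak tail current of the secondary pulse compared with the same well before compound.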

Sequence of human ether-à-go-go-related gene (hERG) potassium channel (Q12809 whole entry, looked up): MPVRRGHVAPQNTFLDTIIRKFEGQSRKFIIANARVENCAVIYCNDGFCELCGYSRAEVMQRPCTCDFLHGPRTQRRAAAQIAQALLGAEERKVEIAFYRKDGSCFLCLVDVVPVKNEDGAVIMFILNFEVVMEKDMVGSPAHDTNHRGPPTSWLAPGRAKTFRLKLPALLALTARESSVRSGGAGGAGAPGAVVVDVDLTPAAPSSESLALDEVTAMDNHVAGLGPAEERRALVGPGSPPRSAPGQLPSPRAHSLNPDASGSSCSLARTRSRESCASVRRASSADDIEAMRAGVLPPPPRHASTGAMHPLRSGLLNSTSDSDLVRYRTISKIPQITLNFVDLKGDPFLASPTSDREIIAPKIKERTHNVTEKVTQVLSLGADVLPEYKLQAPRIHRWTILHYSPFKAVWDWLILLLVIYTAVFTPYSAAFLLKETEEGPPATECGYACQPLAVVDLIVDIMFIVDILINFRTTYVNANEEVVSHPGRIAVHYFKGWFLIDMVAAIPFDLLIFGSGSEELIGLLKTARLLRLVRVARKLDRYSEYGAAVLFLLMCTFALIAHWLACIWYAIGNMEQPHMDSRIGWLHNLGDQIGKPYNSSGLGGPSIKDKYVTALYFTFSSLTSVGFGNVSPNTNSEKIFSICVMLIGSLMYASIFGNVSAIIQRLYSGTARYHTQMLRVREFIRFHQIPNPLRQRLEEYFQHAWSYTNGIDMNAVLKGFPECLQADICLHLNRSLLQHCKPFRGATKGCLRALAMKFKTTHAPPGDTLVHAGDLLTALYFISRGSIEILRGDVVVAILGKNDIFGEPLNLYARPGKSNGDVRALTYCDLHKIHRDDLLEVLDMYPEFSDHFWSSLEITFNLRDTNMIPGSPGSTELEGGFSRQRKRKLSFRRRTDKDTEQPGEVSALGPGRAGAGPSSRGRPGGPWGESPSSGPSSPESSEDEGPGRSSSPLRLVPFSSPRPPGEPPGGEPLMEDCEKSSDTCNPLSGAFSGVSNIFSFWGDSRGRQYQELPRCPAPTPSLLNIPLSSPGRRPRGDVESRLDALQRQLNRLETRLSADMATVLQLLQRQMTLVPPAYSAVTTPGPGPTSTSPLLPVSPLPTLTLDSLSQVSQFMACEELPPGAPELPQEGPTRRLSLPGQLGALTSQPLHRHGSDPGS

| SMILES | hERG current change (%, negative = inhibition) at 10uM |
| --- | --- |
| COc1ccc(OCC(=O)N/N=C(\C)CC(=O)Nc2cccc([N+](=O)[O-])c2)cc1 | -53.8% |
| CC(=O)N1N=C(c2ccccc2)OC1(C)CC(=O)Nc1ccccc1 (stereo not shown) | 8.71% |
| O=C(Oc1ccc(=O)n(-c2ccccc2)n1)c1ccc(F)cc1 | -26.1% |
| Cc1ccc(OCCC(=O)Nc2ccc(C)c(S(=O)(=O)N3CCOCC3)c2)cc1 | -12.9% |
| COCCCN1C(=O)C(=O)/C(=C(/O)c2ccccc2)C1c1ccc(N(C)C)cc1 (stereo not shown) | 12.8% |
| O=C(NCc1cccc(CNC(=O)c2ccco2)c1)c1ccco1 | 29.8% |
| CCN(CC)C(=O)Cn1c(=O)n(CCCCCC(=O)Nc2ccccc2)c(=O)c2sccc21 | -32.3% |
| CCN(C(=O)CSc1nnc(Cc2ccccc2F)n1N)C1CCS(=O)(=O)C1 (stereo not shown) | 2.11% |
| CCOC(=O)C1=C(C)N=c2s/c(=C\c3ccc(OCC(=O)O)cc3)c(=O)n2C1c1ccc(Cl)cc1 (stereo not shown) | 20.4% |
| CC(OC(=O)c1cccc(-n2cnnn2)c1)C(=O)N(C)c1ccccc1 (stereo not shown) | -26.8% |
| COc1ccc(/C=C/C(=O)N[C@@H](C)C(=O)O)cc1 | 12.2% |
| COc1ccccc1NC(=O)NC(=O)N(C(C)C)S(C)(=O)=O | 19.2% |
| CCCc1c(NC(=O)Nc2ccc(F)cc2)cnn1-c1ccc(Cl)cc1 | 7.22% |
| CN(C)/C=C1/Oc2c(ccc3ccccc23)C1=O | 4.23% |
| CC(C)(C)c1ccc(-c2noc(CCC(=O)N3CCOCC3)n2)cc1 | -1.04% |
| CCC(CNC(=O)c1c(C)nn(-c2ccccc2)c1Cl)c1ccccc1 (stereo not shown) | -2.66% |
| Cc1cccc(NC(=O)CCC(=O)N/N=C/c2cccnc2)c1 | 1.9% |
| COc1ccc(C(=O)Nc2cccc(NC(C)=O)c2)cc1OC | 10.9% |
| C/C=C\C=C/C(=O)Nc1cccc(C2=NOC3(C2)C[C@@H](C(N)=O)N(C(=O)CCCCC)C3)c1 (stereo partly shown) | -37.7% |
| CN1C(=O)c2cccc3c(Br)ccc(c23)C1=O | -16.2% |
| COC(=O)c1ccc(NC(=S)N(Cc2cccnc2)Cc2ccco2)cc1 | -29.1% |
| CCO[C@@H]1OC(C(=O)N2CCCCCCC2)=C[C@H](c2ccc(C(F)(F)F)cc2)[C@H]1CCCO | -21.4% |
| O=C(/C=C/c1ccc(-c2ccccc2)cc1)NCc1cccnc1 | 4.39% |
| CCSC(=S)c1c(C)[nH]n(-c2ccccc2)c1=O | 12.9% |
| O=C(O)c1ccc(-n2nnnc2SCc2ccccc2)cc1 | 8.05% |
| O=C1CC(N2CC=C(c3ccccc3)CC2)C(=O)N1c1ccc(F)cc1 (stereo not shown) | -19.5% |
| O=C(CSc1nncn1-c1ccccc1)Nc1ccc(N2CCOCC2)cc1 | 3% |
| COc1cccc(C(=O)NNC(=O)CCC(=O)O)c1 | 13.7% |

| SMILES | hERG current change (%, negative = inhibition) at 10uM |
| --- | --- |
| CC1(OC(=O)c2cnc3ccccc3n2)C(=O)C=C2C=C(C3CC3)OC=C2C1=O (stereo not shown) | 6.73% |
| Cc1occc1-c1nnc(SCC(=O)NCC2CCCO2)n1C (stereo not shown) | -2% |
| COc1ccc(N/C=C(/C(C)=O)c2ccccc2)cc1 | -20.2% |
| Cc1c(NC(=O)NCc2ccccc2)c(=O)n(-c2ccccc2)n1C | 3.27% |
| Cc1cc(Cl)ccc1NC(=O)C(=O)N/N=C/c1ccc2c(c1)OCO2 | 19.8% |
| O=C(c1cc(COc2ccc(F)c(F)c2)on1)N1CCN(C2CCCCC2)C(=O)C1 | -56.2% |
| Cc1onc(-c2c(F)cccc2Cl)c1C(=O)OCc1nnc(-c2ccccc2)o1 | -9.29% |
| Cc1cc(O)c(C(=O)/C=C/c2ccc(C(C)C)cc2)c(=O)o1 | 12.4% |
| COc1ccc(/C=C/C(=O)NC(=S)Nc2ccc(S(=O)(=O)N=C(N)N)cc2)cc1OC | -30.3% |
| CCOC(=O)c1ccc(NC(=O)CN(C)S(=O)(=O)c2ccc(OC)cc2)cc1 | 6.82% |
| Cc1cc(C)c2sc(N(CCN(C)C)C(=O)c3c(F)cccc3F)nc2c1.Cl | -2.23% |
| O=C1Nc2ccc(Cl)cc2C(C#CC2CC2)(C(F)(F)F)O1 (stereo not shown) | 2.47% |
| Cc1ccc(-c2noc(CN(C(=O)C34CC5CC(CC(C5)C3)C4)C(C)C)n2)cc1 | 3.64% |
| Fc1ccc(NC(=S)Nc2ccc3nccnc3c2)cc1 | 4.15% |
| Nc1ncnc2c1ncn2Cc1ccccc1 | 8.84% |
| CC(=O)Nc1ccc(-n2c(=O)c3ccccc3c3ccccc3c2=O)cc1 | 24.3% |
| COc1ccccc1N1CCN(Cc2cc3c(cc2O)OCO3)CC1 | -39.7% |
| CCN1CCN(c2ccc([N+](=O)[O-])cc2C(=O)c2ccc(Cl)cc2)CC1 | -72.8% |
| COc1ccc(-c2nc3c4ccccc4ccn3c2CN2CCCCC2)cc1OC.Cl | 0.736% |
| O=c1[nH]c(CN2CCN(C/C=C/c3ccccc3)CC2)nc2ccccc12 | -65.2% |
| O=[N+]([O-])c1ccccc1S(=O)(=O)NCc1ccc(F)cc1 | 7.19% |
| CCO[C@H]1OC(C(=O)NC2CC2)=C[C@@H](c2coc3ccccc3c2=O)[C@@H]1CCCO | 5.93% |
| Cn1c(SCC(=O)N/N=C/c2ccco2)nc2ccccc21 | -2.38% |
| O=C(O)c1cccc(-c2ccc(/C=N/Nc3nn[nH]n3)o2)c1 | 16.8% |
| CN1CCN(C2CCCCCC2)CC1 | 5.61% |
| O=C(Nc1cccnc1)c1cc(-c2cccc(Cl)c2)on1 | -0.33% |
| Cc1cc([N+](=O)[O-])nn1CCCC(=O)Nc1c(C)n(C)n(-c2ccccc2)c1=O | 0.638% |
